Test results: the BET-seq Pho4 binding data (Le et al. 2018)
The list shows a part of the results. The energies were worked out here from pooled read counts, against the library average; single values are noisy.

Molecular target: T1, Pho4 (S. cerevisiae) (UniProt P07270)
T1 sequence: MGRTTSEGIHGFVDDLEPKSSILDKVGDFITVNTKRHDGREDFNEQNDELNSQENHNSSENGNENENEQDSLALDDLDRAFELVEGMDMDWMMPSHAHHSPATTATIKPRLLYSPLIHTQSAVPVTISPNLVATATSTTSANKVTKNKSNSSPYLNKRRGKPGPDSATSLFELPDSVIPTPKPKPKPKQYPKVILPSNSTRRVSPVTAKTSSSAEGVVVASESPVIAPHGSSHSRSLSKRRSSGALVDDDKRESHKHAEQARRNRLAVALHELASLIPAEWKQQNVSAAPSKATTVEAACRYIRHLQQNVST
Assay: relative binding free energy (BET-seq); higher = weaker binding
Settings: reference: library average

| Sequence | relative binding free energy |
| --- | --- |
| TAAATCACGTGGGAGA | 0.2 kcal/mol |
| ATTACCACGTGTATGT | 0.1 kcal/mol |
| AACTGCACGTGTAGTG | 0.1 kcal/mol |
| CTTAGCACGTGAGAGT | 0.19 kcal/mol |
| AAGTACACGTGTAGTG | 0.04 kcal/mol |
| TAGCACACGTGGTGTA | -0.11 kcal/mol |
| GTGGACACGTGTTATG | 0.08 kcal/mol |
| GGAGGCACGTGGCCAG | -0.16 kcal/mol |
| GATCGCACGTGGATTG | 0.06 kcal/mol |
| GCTAACACGTGGGGTT | -0.08 kcal/mol |
| TTGCTCACGTGGTTGC | 0.09 kcal/mol |
| AGTGCCACGTGGGACG | -0.16 kcal/mol |
| CTAGTCACGTGAATTA | 0.54 kcal/mol |
| GTTCGCACGTGTGCTG | -0.04 kcal/mol |
| TGAGTCACGTGGATTT | 0.28 kcal/mol |
| TTACGCACGTGCGTGG | -0.23 kcal/mol |
| CGTTGCACGTGTTTAG | 0.07 kcal/mol |
| TTTTTCACGTGTCTAA | 0.13 kcal/mol |
| AGGTGCACGTGGGAGG | -0.16 kcal/mol |
| GGCGTCACGTGGTACG | 0.22 kcal/mol |
| CTGATCACGTGAGTTG | 0.22 kcal/mol |
| GGGGACACGTGGTCGG | -0.03 kcal/mol |
| TAGTACACGTGATTAG | 0.24 kcal/mol |

| Sequence | relative binding free energy |
| --- | --- |
| TTGTTCACGTGTGGAT | 0.27 kcal/mol |
| GTTAGCACGTGACGGT | 0.16 kcal/mol |
| CGGTTCACGTGGTTCT | 0.2 kcal/mol |
| GATGGCACGTGTACGG | 0.08 kcal/mol |
| GCATTCACGTGGTCGG | 0.24 kcal/mol |
| AGATGCACGTGAATTG | 0.24 kcal/mol |
| ATGTGCACGTGCTGCG | -0.11 kcal/mol |
| GTATGCACGTGTTATA | -0.08 kcal/mol |
| CGGGCCACGTGGAGGG | -0.09 kcal/mol |
| TCGAGCACGTGGGGGG | -0.27 kcal/mol |
| TGTTCCACGTGTAGAG | 0.07 kcal/mol |
| TTTGACACGTGGTTTA | 0.03 kcal/mol |
| GCTGTCACGTGAGGGC | 0.4 kcal/mol |
| GGGTTCACGTGACAGT | 0.4 kcal/mol |
| ACGGGCACGTGGTAGT | -0.08 kcal/mol |
| GGCGGCACGTGGGAGA | -0.11 kcal/mol |
| AGAGGCACGTGGTGGC | -0.11 kcal/mol |
| TAAGGCACGTGATGGA | 0.1 kcal/mol |
| TGTTGCACGTGAGGGT | 0.21 kcal/mol |
| GTGATCACGTGGGAAT | 0.16 kcal/mol |
| GCTGTCACGTGGAAGG | 0.16 kcal/mol |
| GCGTACACGTGAGCGG | 0.38 kcal/mol |
| GTAGTCACGTGGTCAT | -0.01 kcal/mol |

| Sequence | relative binding free energy |
| --- | --- |
| GGCTGCACGTGTAAAT | 0.26 kcal/mol |
| ATGTCCACGTGGGGGA | -0.19 kcal/mol |
| AGTTACACGTGGTATC | 0.03 kcal/mol |
| AGTGCCACGTGGGGTG | -0.22 kcal/mol |
| ATGTTCACGTGTGTTA | 0.15 kcal/mol |
| TTGGACACGTGTGGTC | 0.25 kcal/mol |
| CGGGACACGTGGTAGT | 0.01 kcal/mol |
| TAGGGCACGTGAGGGT | 0.1 kcal/mol |
| CTGGGCACGTGGTGTG | -0.17 kcal/mol |
| CGGGGCACGTGAGGCG | -0.04 kcal/mol |
| TAAGTCACGTGGAATA | 0.24 kcal/mol |
| GTCTACACGTGGTTGG | 0.22 kcal/mol |
| GCTGGCACGTGTATGT | -0.05 kcal/mol |
| CGTATCACGTGGAGTG | 0.21 kcal/mol |
| CTGTACACGTGTAGGG | 0 kcal/mol |
| GGATGCACGTGCCTTG | 0.08 kcal/mol |
| TACTACACGTGAGGTG | 0.31 kcal/mol |
| TAGATCACGTGGGGGT | -0.07 kcal/mol |
| GGCATCACGTGTGTTA | 0.24 kcal/mol |
| TTTTGCACGTGTTCTA | -0.12 kcal/mol |
| GGATGCACGTGTGCGC | -0.01 kcal/mol |
| AATAACACGTGGAGTG | -0.14 kcal/mol |
| TCGGGCACGTGTTACG | -0.15 kcal/mol |

| Sequence | relative binding free energy |
| --- | --- |
| CTTATCACGTGCTGGG | 0.13 kcal/mol |
| TGTATCACGTGTGATA | 0.13 kcal/mol |
| CGCGGCACGTGGTTGT | -0.13 kcal/mol |
| GTGAACACGTGAGGTA | 0.16 kcal/mol |
| GCAGTCACGTGGTTGC | 0.14 kcal/mol |
| TAGCGCACGTGTAGGT | -0.07 kcal/mol |
| GTGTGCACGTGGCGGT | 0.02 kcal/mol |
| TGTCACACGTGAGTTT | 0.36 kcal/mol |
| GTGGGCACGTGGATTC | 0.07 kcal/mol |
| CGAGGCACGTGGGTTC | -0.13 kcal/mol |
| TTGGTCACGTGTAAGT | 0.14 kcal/mol |
| AGGTACACGTGTGAAG | 0.1 kcal/mol |
| TGGTCCACGTGGAAGG | 0.13 kcal/mol |
| AGGTCCACGTGGTTAG | -0.08 kcal/mol |
| TAAGACACGTGGGAGG | -0.02 kcal/mol |
| TTATGCACGTGGCGGC | -0.13 kcal/mol |
| CTAATCACGTGGATGT | 0.18 kcal/mol |
| TGTTTCACGTGGTGGT | 0.38 kcal/mol |
| GAATGCACGTGGCGGT | -0.05 kcal/mol |
| AATGACACGTGGTGGA | -0.03 kcal/mol |
| GCTTTCACGTGTTCGG | 0.27 kcal/mol |
| TTATGCACGTGGTCGG | -0.13 kcal/mol |
| TCAGTCACGTGGGCGG | -0.02 kcal/mol |

| Sequence | relative binding free energy |
| --- | --- |
| TATGGCACGTGTCGTC | -0.08 kcal/mol |
| GGTCGCACGTGGCGGT | -0.23 kcal/mol |
| TAAGGCACGTGGAAGA | -0.06 kcal/mol |
| TCCGGCACGTGTAGTG | -0.01 kcal/mol |
| ATGAGCACGTGGAGGT | -0.02 kcal/mol |
| TCTATCACGTGGGGGT | 0.01 kcal/mol |
| GGGTCCACGTGGAATT | 0.18 kcal/mol |
| GGATGCACGTGAGTGC | 0.22 kcal/mol |
| TATGTCACGTGGGCTG | -0.17 kcal/mol |
| CGTGGCACGTGCTTTT | -0.16 kcal/mol |
| CTGGGCACGTGTAAGA | 0.11 kcal/mol |
| AAGTGCACGTGATTGT | 0.11 kcal/mol |
| TATCGCACGTGAAATT | 0.28 kcal/mol |
| GGAGTCACGTGTTGCG | 0.15 kcal/mol |
| GGGTACACGTGATGAT | 0.16 kcal/mol |
| AGATGCACGTGATGAG | 0.17 kcal/mol |
| ATGCGCACGTGGGATG | -0.17 kcal/mol |
| GAGTTCACGTGGTTTA | 0.41 kcal/mol |
| TTGTCCACGTGGCTTG | -0.13 kcal/mol |
| AGTAGCACGTGCGGGA | -0.1 kcal/mol |
| ATAGGCACGTGAGTTA | 0.06 kcal/mol |
| TTGGCCACGTGGTAGC | -0.13 kcal/mol |
| TCGTCCACGTGGTTGT | 0.03 kcal/mol |
